For some of these results: Shown are results outside the selection of strong results, which stands elsewhere. The entries are a selection whose mix differs from that of the whole data set.
How the values were obtained:
Settings in all cases: concentration: 1 μM,replicates: in singlicate; n = 1
WEE1 = test system: WEE1
WEE2 = test system: WEE2
WNK1 = test system: WNK1
WNK2 = test system: WNK2
WNK3 = test system: WNK3
WNK4 = test system: WNK4
YANK1 = test system: T1, YANK1
T1 construct: gene STK32A

YANK2 = test system: T2, YANK2
T2 construct: gene STK32B

YANK3 = test system: T3, YANK3
T3 construct: gene STK32C

YES = test system: T4, YES
T4 construct: gene YES1

YSK1 = test system: T5, YSK1
T5 construct: gene STK25

YSK4 = test system: T6, YSK4
T6 construct: gene MAP3K19

ZAK = test system: ZAK
ZAP70 = test system: ZAP70
p38-beta = test system: T7, p38-beta
T7 construct: gene MAPK11

p38-delta = test system: p38-delta
p38-gamma = test system: T8, p38-gamma
T8 construct: gene MAPK12

p38-alpha = test system: T9, p38-alpha
T9 construct: gene MAPK14
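Also: KINOMEscan kinase panel screen.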

SMILES	%Inh (WEE1)	%Inh (WEE2)	%Inh (WNK1)	%Inh (WNK2)	%Inh (WNK3)	%Inh (WNK4)	%Inh (YANK1)	%Inh (YANK2)	%Inh (YANK3)	%Inh (YES)	%Inh (YSK1)	%Inh (YSK4)	%Inh (ZAK)	%Inh (ZAP70)	%Inh (p38-beta)	%Inh (p38-delta)	%Inh (p38-gamma)	%Inh (p38-alpha)
Cc1cc(C)cc(Oc2nccc(-c3c(-c4ccc(F)cc4)ncn3C3CCNCC3)n2)c1.O=C(O)C(F)(F)F.O=C(O)C(F)(F)F.O=C(O)C(F)(F)F [SB-284851]	14%	0%	0%	0%	0%	0%	56%	88%	0%	0%	0%	0%	15%	1%	34%	0%	52%	
COc1cccc(C2=C(Nc3ccc(SC)cc3)C(=O)NC2=O)c1 [SB-331032]	0%	2%	2%	0%	6%	17%	0%	0%	0%	0%	0%	37%	5%	0%	14%	2%	0%	0%
CSc1ccc(NC2=C(c3cccc(Cl)c3)C(=O)NC2=O)cc1 [SB-341528]	0%	0%	0%	0%	0%	0%	0%	9%	0%	0%	0%	0%	0%	0%	0%	0%	19%	0%
O=C1NC(=O)C(c2ccccc2)=C1Nc1cc(Cl)c(O)c(Cl)c1 [SB-390530]	8%	0%	0%	14%	0%	10%	3%	0%	32%	0%	0%	0%	0%	0%	4%	7%	0%	0%
O=C1NC(=O)C(c2ccccc2Cl)=C1Nc1cccc(C(=O)O)c1 [SB-390526]	0%	9%	0%	14%	28%	0%	2%	0%	2%	9%	3%	0%	4%	0%	0%	0%	0%	13%
Cc1ccc(C)c(Oc2nccc(-c3c(-c4ccc(F)cc4)ncn3C3CCNCC3)n2)c1.O=C(O)C(F)(F)F.O=C(O)C(F)(F)F.O=C(O)C(F)(F)F [SB-284852]	6%	14%	0%	1%	0%	0%	80%	87%	41%	1%	0%	15%	16%	0%	89%	2%	36%	
O=C(O)c1ccc(-c2nc(-c3ccc(F)cc3)c(-c3ccncc3)[nH]2)cc1 [SB-202620]	14%	2%	20%	0%	0%	0%	9%	100%	24%	0%	30%	12%	37%	0%	97.7%	0%	53%	100%
O=C1NC(=O)C(c2ccc(Cl)cc2)=C1Nc1ccccc1 [SB-317661]	0%	0%	2%	0%	15%	24%	0%	0%	0%	0%	3%	43%	0%	100%	0%	0%	0%	0%
COc1ccc(C2=C(Nc3cccc(Cl)c3)C(=O)NC2=O)cc1 [SB-326892]	19%	7%	0%	0%	0%	0%	0%	0%	0%	0%	0%	11%	20%	0%	7%	19%	0%	2%
CS(=O)(=O)c1ccccc1-c1nc(-c2ccc(F)cc2)c(-c2ccncc2)[nH]1 [SB-213663]	0%	9%	0%	0%	0%	0%	63%	71%	0%	0%	0%	0%	28%	33%	33%	10%	52%	98.1%
O=C1NC(=O)C(c2ccc(Cl)cc2)=C1Nc1cccc(O)c1 [SB-333613]	35%	0%	36%	0%	47%	46%	0%	0%	0%	0%	0%	43%	0%	29%	1%	0%	54%	0%
O=C1NC(=O)c2c1c(-c1ccccc1)cc1[nH]c3ccc(O)cc3c21	32%	85%	0%	29%	0%	14%	5%	0%	0%	13%	8%	100%	3%	6%	25%	12%	23%	9%
O=C1NC(=O)C(c2ccccc2)=C1Nc1ccc(Cl)c(C(=O)O)c1 [SB-390532]	35%	0%	13%	21%	49%	50%	0%	0%	13%	16%	0%	49%	16%	41%	0%	47%	11%	38%
O=C1NC(=O)C(c2ccc(Cl)cc2)=C1Nc1cccc(C(=O)O)c1 [SB-360737]	14%	10%	14%	8%	29%	0%	2%	13%	10%	10%	0%	43%	24%	51%	0%	42%	0%	0%
O=C1NC(=O)C(c2ccc(Cl)cc2)=C1Nc1ccc(O)c(Cl)c1 [SB-405367]	0%	6%	0%	0%	0%	0%	0%	14%	0%	0%	6%	0%	0%	33%	1%	6%	26%	1%
O=C1NC(=O)C(c2ccccc2Cl)=C1Nc1ccccc1 [SB-376715]	3%	0%	24%	2%	30%	0%	0%	0%	0%	0%	12%	3%	5%	0%	0%	22%	2%	0%

Source: paper PMC5540273 (PLoS ONE, 2017)
